Test results: PubChem BioAssay AID1159614 (National Center for Advancing Translational Sciences (NCATS), 2016)
The campaign covered roughly 45,000 compounds. About 65 (0.1%) were called active. Calls follow the shape of the dose curve; as a rule, active = well fitted activation curve with a large enough effect; inconclusive = small, poorly fitted or top-dose-only effect; inactive = no such curve, though single readings can be large or run the other way. The list shows a part of the results.

target: Galactocerebrosidase (Homo sapiens) (UniProt P54803); assay: A Novel Cell-Based Assay to Identify Small Molecules for B -Galactocerebrosidase; conditions: 145M-Twi-hGALC-G270D cells (Twitcher mouse brain line with human GALC G270D), HMU-beta-Gal fluorescence, 48 h; series mostly up to 57.5 µM; activation: at the top concentration; also: 0% is about no effect; nearly all actives have a fitted effect of over 65% in size
UniProt P54803, sequence (P54803 whole entry, looked up): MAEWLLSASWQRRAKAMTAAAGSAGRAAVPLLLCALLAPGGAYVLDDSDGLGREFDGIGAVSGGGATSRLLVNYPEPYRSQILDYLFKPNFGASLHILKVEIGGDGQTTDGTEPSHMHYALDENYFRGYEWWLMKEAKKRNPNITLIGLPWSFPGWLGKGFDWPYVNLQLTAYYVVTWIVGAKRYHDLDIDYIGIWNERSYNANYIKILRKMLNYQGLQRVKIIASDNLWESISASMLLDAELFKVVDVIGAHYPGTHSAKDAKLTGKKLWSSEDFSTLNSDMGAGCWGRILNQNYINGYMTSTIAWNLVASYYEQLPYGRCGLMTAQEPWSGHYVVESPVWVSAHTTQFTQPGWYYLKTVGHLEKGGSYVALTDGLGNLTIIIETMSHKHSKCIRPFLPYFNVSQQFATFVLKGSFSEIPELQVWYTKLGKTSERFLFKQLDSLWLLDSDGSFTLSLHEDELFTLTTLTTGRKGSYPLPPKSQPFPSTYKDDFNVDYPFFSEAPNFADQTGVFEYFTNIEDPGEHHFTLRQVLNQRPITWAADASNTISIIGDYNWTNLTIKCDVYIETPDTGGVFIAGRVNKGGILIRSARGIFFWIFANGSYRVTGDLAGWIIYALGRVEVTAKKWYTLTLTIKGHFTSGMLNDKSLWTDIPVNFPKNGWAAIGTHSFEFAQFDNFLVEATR
Method in brief: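 Fluorogenic HMU-b-Gal hydrolysis (0.1 mM final, pH 5.2 citrate-phosphate with 1 mg/mL sodium taurocholate; carbonate stop buffer) measures mutant GALC activity after compound treatment of live 145M-Twi Twitcher brain cells stably carrying human GALC-G270D, with wild-type GALC line alongside; activation sought.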

activation, inactive:
COc1ccc(CNC(=O)Cn2cccc2C(=O)c2ccccc2C)cc1 -2.41%, CC(C)c1ccc(C2NC(=O)c3c(sc4c3CCN(C)C4)N2)cc1 (centres undefined) -5.43%, CCOc1ccccc1NC(=O)Cn1c(=O)n(-c2ccc(C)cc2)c(=O)c2c1cnn2C -13%, Cc1cc(C)cc(NC(=O)CCn2cnc3ccccc3c2=O)c1 -9.73%, COc1ccc2c(c1)c(CC(=O)Nc1c(C)cccc1C)c(C)n2C(=O)c1ccc(Cl)cc1 -12.4%, CSc1ccc(CCNC(=O)c2ccc(-n3c(C)cc4c3CCC(C)C4)cc2)cc1 (centres undefined) -26%, COc1ccc(OCC(=O)NCc2ccc3c(c2)CCN3C(=O)c2cccc(C)c2)cc1 -29.3%, CC(=O)N1CCCC1c1nc2ccccc2n1Cc1cccc(C)c1 (centres undefined) -13%, Cc1ccc(C)c(N2CCN(C(=O)c3c(C)oc4nc(C)nc(N5CCOCC5)c34)CC2)c1 4.09%, CCCCC(=O)OC1=CN(Cc2ccccc2)S(=O)(=O)c2ccccc21 -6.25%, Cc1ccc(-n2nnnc2SCC(=O)NCCc2ccccc2)cc1C 8.77%, COc1ccc(NC(=O)c2ccc(NC(=O)CCS(=O)(=O)c3cccs3)cc2)cc1Cl -6.98%, CCC(C)NC(=O)Cn1c(=O)n(-c2ccc(Cl)cc2)c(=O)c2c3c(sc21)CCCC3 (centres undefined) -7.66%, CCOc1ccc(N(CC(=O)OC)S(=O)(=O)c2ccc3c(c2)n(C)c(=O)c(=O)n3C)cc1 -13.2%, CCCN[C@H]1CCc2nc(N)sc2C1 -18%, O=C(Nc1ccc(F)cc1F)C1CCN(C(=O)c2cnn(-c3ccccc3)c2-n2cccc2)CC1 -6.23%, O=C(NCC(c1ccc2c(c1)OCO2)N1CCN(c2ccccc2)CC1)c1ccc(F)c(F)c1 (centres undefined) -15.9%, C=CCC(CC=C)(CNC(=O)C(=O)Nc1ccc(Br)cc1)c1ccc(OC)c(OC)c1 3.7%, CCCc1nnc(SCc2cc(=O)c3c(C)cc(C)cc3[nH]2)n1C 5.11%, CCc1nnc(NC(=O)CSc2nccn2Cc2ccc(Cl)cc2)s1 -9.71%, COCCNC(=O)c1ccc2c(c1)ncn2-c1cc(C)ccc1OC -13%, CCOc1ccc(NS(=O)(=O)c2c(C)nc3sc(CC)nn3c2=O)cc1 -9.42%, CCc1ccc(CNC(=O)Cn2nc(C)c3nn(-c4ccc(Cl)cc4)c(C)c3c2=O)cc1 -6.38%, Cn1cccc1-c1cc2n(n1)CCC(=O)N2CCCC(=O)NCc1cccc(Cl)c1 -16.9%, O=C(NCc1cccc(Cl)c1)c1cnc(N2CCOCC2)c2ccccc12 -9.64%, O=C1CN(C(=O)Nc2ccccc2C(F)(F)F)C(c2ccccc2)c2c(sc3c2CCCC3)N1 (centres undefined) -18%, CCOc1ccc(CCNC(=O)CSc2cc(=O)n(C)c3ccc(Cl)cc23)cc1OCC -4.2%, COc1ccccc1NS(=O)(=O)c1cc2c(cc1Cl)NC(=O)CO2 -15.1%, Cc1cccc(N2CCN(C(=O)CCSCc3ccccc3F)CC2)c1C -9.85%, COc1ccccc1N1CCN(C(=O)Cn2ncc3c(=O)oc4ccc(C)cc4c32)CC1 -8.69%, CN(C)S(=O)(=O)c1ccc(C(=O)Nc2ccc(-n3nncc3-c3ccccc3)cc2)cc1 -7.78%, CCCc1cnc2c(c1SCc1ccc(C(F)(F)F)cc1)c(=O)n(C)c(=O)n2C -14.9%, Cc1ccc(NC(=O)CSc2ccc(-c3sc(-c4ccccc4)nc3C)nn2)cc1F -7.13%, CCN1C(=O)C2(c3ccccc31)c1c(oc3ccc(F)cc3c1=O)C(=O)N2CCCOC (centres undefined) -10.7%, CC(C)Oc1ccc(CNC(=O)c2ccc(Cn3c(=O)c4cccn4c4cccnc43)cc2)cc1 2.76%, COc1ccc(C2=NC(C)(C)N(CC(=O)Nc3ccc(F)c(F)c3)C2=O)cc1 3.13%, Cc1nn2c(=O)cc(COC(=O)CNC(=O)c3ccc(F)cc3)nc2s1 -11.6%, CCN1CCN(c2cc(C)c3cc(NC(=O)c4cc(Cl)ccc4OC)ccc3n2)CC1 -22%, CC(=O)c1ccc(NC(=O)Cn2c(=O)n(Cc3ccco3)c(=O)c3sc4ccccc4c32)cc1 -8.14%, Cc1ccc(N(Cc2cccs2)C(=O)COc2cccc(C)c2)cc1 -15.2%, Cc1cccc(CNC(=O)c2cnc3sc(N4CCCCCC4)nn3c2=O)c1 3.02%, COc1ccc(-c2nsc(NC(=O)c3oc4cc(C)c(C)cc4c3C)n2)cc1 5.89%, Cc1ccc(NC(=O)c2c(C)nc3sc(C(=O)Nc4ccc(F)cc4)c(N)c3c2-c2ccccc2Cl)c(C)c1 -16.9%, CCOC(=O)c1c(C)n(-c2ccccc2)c2ccc(OC(=O)c3ccccc3NC(=O)C(C)(C)C)cc12 -36.4%, Cc1ccc(OCC(O)Cn2c(=N)n(CCN3CCCCC3)c3ccccc32)cc1 (centres undefined) -15.2%, Cc1ccc(-n2ncc(C(=O)NCCCN3CCCCC3)c2C2CCN(C(=O)OC(C)(C)C)CC2)cc1 0.609%, COc1cccc(OC)c1C(=O)Nc1ccc(S(=O)(=O)Nc2nccc(C)n2)cc1 -4.92%, CCOc1ccc(CN2CCN(c3ncnc4sc5c(c34)CC(C)CC5)CC2)cc1 (centres undefined) -7.77%, COc1ccc(Cl)cc1NC(=O)c1ccc2c(c1)CCCN2S(C)(=O)=O -12%, COc1ccccc1C(=O)Nc1nnc(S(=O)(=O)N(C)c2ccc(Cl)cc2)s1 -37.6%, O=C(O)c1cc(-c2ccc(C(F)(F)F)cc2)nc2n[nH]c(-c3ccccc3)c12 -16.6%, CC(=O)c1ccc(NC(=O)Cn2cc3c(n2)CCCC3)cc1 -12.3%, CCc1ccc(S(=O)(=O)c2cn(CC)c3cc(N4CCOCC4)c(F)cc3c2=O)cc1 -11.8%, O=C(NCCSc1c(-c2ccccc2)[nH]c2ccccc12)c1ccc(S(=O)(=O)N2CCOCC2)cc1 -4.42%, Cc1nc(-c2ccccc2)sc1CCNS(=O)(=O)c1ccccc1 -35.8%, Cc1ccc(CNC(=O)C2CCN(S(=O)(=O)c3ccc4c(c3)CCCN4C(=O)C3CCC3)CC2)cc1 -3.76%, CCOc1ccc2c(c1)c(=O)c(S(=O)(=O)c1ccccc1)cn2CC(=O)Nc1ccccc1OC -3.77%, Cc1ccccc1NC(=O)CN1C(=O)C(C)(C)c2ccccc21 -12%, COc1cccc(NC(=O)c2cc3c(=O)n(C)c4ccccc4c3n2C)c1 -2.91%, COc1ccc(NC(=O)CN2C(=O)CSc3ccc(S(=O)(=O)N4CCCC4)cc32)cc1OC -3.15%, CCOc1ccc(S(=O)(=O)N(CC(=O)NCCc2ccc(OC)c(OC)c2)c2ccccc2)cc1 -9.38%, Cc1ccccc1Cn1c(CN2CCC(C(=O)NCCN(C)C)CC2)cc2ccccc21 -29.1%, Cc1cccc(C)c1NC(=O)Cn1c(=O)n(CCC(=O)NCc2ccccc2Cl)c(=O)c2sccc21 -13.9%, COc1ccc(OC)c(CCNC(=O)c2c(C)oc3ncn(C)c(=O)c23)c1 -7.53%, Cc1ccc(C2CCN(C(=O)Nc3ccc(C)c(C)c3)C2)cc1 (centres undefined) -5.63%, COc1cccc(C(=O)Nc2ccc(S(=O)(=O)N(Cc3ccccc3)c3ccccc3)cc2)c1 -20%, CCS(=O)(=O)N1CCc2cc(C(=O)NCCc3ccc(OC)c(OC)c3)ccc21 -0.723%, CC(C)Oc1ccc(CNC(=O)Cn2c(-c3cccs3)cc3ccccc32)cc1 -10.1%, Cc1ccc(C(=O)Nc2ccc3[nH]c(=O)c(=O)[nH]c3c2)cc1 -21.8%, Cc1cc(C)c(S(=O)(=O)NCCc2csc3nc(-c4ccc(Cl)cc4)nn23)c(C)c1 -8.85%, CC(=O)c1ccc(N2CCN(C(=O)C3CCN(S(=O)(=O)c4c(C)noc4/C=C/c4ccccc4F)CC3)CC2)cc1 -11.3%, O=c1c2c3c(sc2n(Cc2ccc(F)cc2Cl)c(=O)n1-c1ccc(Cl)cc1)CCC3 -11.4%, Cc1ccc(C)c(N2CCN(c3nc4ccccc4c(=O)n3-c3ccccc3)CC2)c1 -3.11%, CC(=O)Nc1ccc(S(=O)(=O)NCCS(=O)(=O)N2CCN(c3ccccc3F)CC2)cc1 -16.8%, COc1cccc(Nc2nc3ccc(C(=O)c4ccccc4)cc3n3c(C)nnc23)c1 -2.24%, COc1ccc(NC(=O)c2ccc(NC(=O)CCS(=O)(=O)c3cccs3)cc2)cc1 -8.03%, CCOc1ccc2c(c1)c(=O)c(S(=O)(=O)c1ccc(Cl)cc1)cn2Cc1ccccc1C -7.61%, Cc1ccccc1OCc1ccc(-c2nc(C#N)c(N3CCC(C(N)=O)CC3)o2)o1 -11.3%, CCOc1ccc2cc(-c3nnc(Nc4ccc(C)cc4)s3)c(=O)oc2c1 -7.07%, CCOC(=O)c1c(S(=O)(=O)NCC(=O)N(C)c2ccc(C)cc2)c(C)n(C)c1C 1.91%, Cc1ccccc1NS(=O)(=O)c1nnc(NC(=O)c2ccco2)s1 -12.1%, Cc1ccccc1-c1nc(SCC(=O)N(C)c2ccccc2)c2c(=O)n(C)c(=O)n(C)c2n1 -14%, Cc1ccc(C)c(CN2C(=O)c3ccccc3S(=O)c3ccc(C(=O)NCCC4=CCCCC4)cc32)c1 (centres undefined) -13%, COc1ccc(CCC(=O)NCCc2csc(-c3cccc(C)c3)n2)cc1 -15.5%, O=C(Nc1ccc(Cl)c(-c2nc3cc(Cl)ccc3o2)c1)c1cc2ccccc2o1 0.178%, CCCNC(=O)c1cnc2c(-c3ccc(OCC)c(OCC)c3)c(C)nn2c1-c1ccccc1 -15%, COc1cc(NC(=O)CC(c2cccs2)N2Cc3ccccc3C2=O)cc(OC)c1OC (centres undefined) -25.2%, CCc1ccccc1N1C(=O)N(CC(=O)c2ccc(OC)cc2)c2ccccc2S1(=O)=O -12.8%, CCc1cccc(NC(=O)Cn2nc3c4cc(F)ccc4n(Cc4cccc(C)c4)cc-3c2=O)c1 -8.27%, COC(=O)CCN(C(=O)C1CCN(S(=O)(=O)c2c(C)noc2/C=C/c2ccccc2F)CC1)c1ccccc1 -14%, CC(C)Oc1ccc(C(=O)Nc2nonc2-c2ccc(OC(C)C)cc2)cc1 -20.4%, CCN(CCCNC(=O)Cn1ncc2c([nH]c3ccc(C)cc32)c1=O)Cc1ccccc1 -3.14%, COc1ccc(NC(=O)C(=O)NCc2ccco2)cc1 2.07%, CC(C)n1c(=N)c(C(=O)NC2CCCCC2)cc2c(=O)n3ccccc3nc21 -17.1%
